# Assay results as given in the supplement of paper PMC3334620.
# Over roughly 33,000 sequences, “E-score (-0.5 to 0.5)” has its median near -0.036; the highest 2% begin near 0.37. This is one part of the list.
# Target: T1, Yer064c (UniProt P40041)
# T1 sequence: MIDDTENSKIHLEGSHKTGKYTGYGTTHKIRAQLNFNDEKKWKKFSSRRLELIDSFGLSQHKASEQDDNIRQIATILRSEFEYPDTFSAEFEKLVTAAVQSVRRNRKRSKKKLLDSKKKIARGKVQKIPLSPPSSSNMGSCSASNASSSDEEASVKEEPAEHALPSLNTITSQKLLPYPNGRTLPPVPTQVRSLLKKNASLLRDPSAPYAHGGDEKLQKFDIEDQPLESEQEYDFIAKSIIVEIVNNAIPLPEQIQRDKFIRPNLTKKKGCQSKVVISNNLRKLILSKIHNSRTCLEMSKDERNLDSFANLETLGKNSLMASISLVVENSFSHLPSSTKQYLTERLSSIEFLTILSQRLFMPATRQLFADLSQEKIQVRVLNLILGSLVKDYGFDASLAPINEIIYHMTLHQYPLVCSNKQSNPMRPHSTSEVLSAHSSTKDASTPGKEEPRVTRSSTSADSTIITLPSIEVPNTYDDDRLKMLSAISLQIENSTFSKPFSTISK
# Assay: PBM E-score (8-mer binding enrichment) (E-score (-0.5 to 0.5)); higher = stronger / more preferred TF binding; most listed sequences are background and not binding sites
# Conditions: protein concentration: 200 nM; construct: GST-full length
# Summary of the method: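 Yeast transcription factors carrying a GST tag, as full-length proteins or DNA-binding domains, were produced by PURExpress in vitro transcription/translation. About 100-200 nM protein was applied to universal all-10-mer Agilent arrays, double-stranded by primer extension on fresh or once-stripped slides. Bound protein was detected with fluorescent anti-GST, and scans were normalised with masliner. The Universal PBM Analysis Suite gave each ungapped eight-base word, pooled with its reverse complement, an E-score, a modified Wilcoxon-Mann-Whitney statistic.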
row,Sequence,PBM E-score
1,GCCTCGGA,-0.311
2,CAGTTGAG,0.0627
3,ACACAGCC,0.00389
4,CGACACAA,0.00733
5,GCTGCGAA,0.00261
6,AGATCACT,0.0464
7,GGTTCTTA,-0.12
8,TACGTCTA,-0.00987
9,GGCCGGGA,-0.134
10,CAGATAGC,-0.0433
11,AAGTACTT,-0.0497
12,AATCACAT,0.398
13,AGGTCGTC,-0.0696
14,AAGCGTGG,-0.0306
15,AGAACGCT,-0.155
16,GACCTACA,-0.0419
17,AAGAAATT,0.119
18,CCAATACG,-0.14
19,GACACGGA,-0.0945
20,CTTACCCA,0.209
21,TTCCAGAA,-0.015
22,GAGATACA,0.145
23,AGGATCAG,-0.0168
24,CTGCAATA,0.0482
25,ACTTCAGC,-0.0714

row,Sequence,PBM E-score
1,GATAGGAA,0.0134
2,GGATTACC,0.116
3,TGTGACAA,-0.0104
4,GTTTCCTA,-0.156
5,ACAGCAAC,0.034
6,ATCCTAAG,0.0883
7,AAAACGGA,-0.0243
8,CATTGTAC,0.124
9,CGTATCAC,-0.0817
10,CATGGTAG,0.153
11,AAAGACGT,-0.00249
12,GATACAAA,0.122
13,CAGCGGGG,-0.287
14,GGGGTCGA,-0.187
15,ATTATCGA,0.0782
16,GACTGAGC,0.24
17,CATCATAC,0.215
18,ACGAAGCA,-0.0559
19,ATATCGAG,0.0408
20,AATGCTCT,-0.178
21,CCCTCCTA,-0.145
22,GCAAATAC,-0.125
23,AGAGTTAC,0.0127
24,CATTATAA,-0.0346
25,GCCTAGTA,-0.12

row,Sequence,PBM E-score
1,GATGGAAC,-0.201
2,AATGTTTG,-0.201
3,ACAGTTGG,-0.2
4,AAGCATAG,-0.195
5,AACATGCT,-0.129
6,GTAACGAA,0.169
7,TAGACAGA,0.149
8,ACCGATTG,0.0282
9,AATTGTCA,0.0267
10,CGGGGCCC,-0.13
11,CAATATTG,0.116
12,AGATTCAA,0.314
13,CCCATACG,-0.2
14,CGTATGCA,-0.122
15,AGAGAGGC,-0.278
16,AAAAGAGT,0.24
17,GAAAGCTC,-0.248
18,CAGCCAGA,-0.0407
19,GAGGGTCA,-0.125
20,GTACATGA,0.161
21,CAACGAGG,0.059
22,CATAAGCC,0.0224
23,CACCACGC,-0.0903
24,TCTAGTCA,0.447
25,CTGGCATA,-0.0817

row,Sequence,PBM E-score
1,GCTCTTAC,0.0598
2,CCGCGGTA,-0.144
3,CAACGAGA,0.0887
4,TGCTCAAA,-0.133
5,ACCCCTCC,-0.0659
6,AAGCCACT,0.0435
7,CTAGCAAA,-0.0659
8,AAGGAGAT,-0.0304
9,ACGAGACT,0.289
10,CATTCGAC,0.105
11,CCGCAGGC,-0.164
12,ACCCTACA,-0.0523
13,AATTGGGC,-0.3
14,CCTAGTGC,-0.129
15,AAGCAGAA,-0.0576
16,GAAAGCTA,-0.199
17,GATTTTCA,0.0899
18,AGACAGTA,0.0971
19,AGGGGTAG,-0.0199
20,AACGTCTG,-0.174
21,AATATCAT,-0.0086
22,ACTCAACT,0.337
23,TCCACAAA,0.0257
24,AATCCTAA,0.0553
25,ACGATTTA,0.126

row,Sequence,PBM E-score
1,GGAATCCA,-0.115
2,GGTAACGA,0.072
3,ACGTATGA,0.213
4,CTACGGCC,-0.305
5,TGAATGCA,0.00125
6,CGTTCCCC,-0.263
7,CGGGGCAC,-0.288
8,CCGGAATC,0.0366
9,CACCCACA,-0.00783
10,CCACGGGA,-0.0711
11,GATTATCC,0.241
12,TAGACCCA,-0.0332
13,AGGTACAC,-0.0614
14,AGGAAGGG,-0.205
15,AAAAAAAA,0.0669
16,ACTGTAGC,-0.0346
17,AATCTTGG,0.0293
18,CGGCCGTA,-0.109
19,CTCTAGCA,0.00221
20,CCGCCAGG,-0.33
21,CAGTGAGC,-0.046
22,TCCTCCCA,-0.223
23,ATGGTACA,-0.0386
24,AGGGGTTG,-0.03
25,TGCGACAA,-0.042

row,Sequence,PBM E-score
1,GAAGAAGC,-0.161
2,ACCCGAAC,0.00326
3,CGCCCCCA,-0.362
4,AACGCGGA,-0.125
5,GGAGCCAA,-0.243
6,GCCGGGGA,-0.272
7,ATAGCATA,-0.0696
8,GCTACTAA,-0.101
9,ATTAGGGG,-0.112
10,CGGTCCCA,-0.0818
11,CCGGCGAA,-0.28
12,ACCCTGTC,-0.102
13,AGTAAGTA,0.168
14,AATCCGGG,-0.239
15,CGTCACGA,-0.0925
16,CTCTCCCC,-0.356
17,AGGCACTC,-0.0297
18,CGGCTACA,-0.00254
19,GCTTTTCA,-0.187
20,AATAGATA,-0.0234
21,AATGTTGT,-0.105
22,GTCACGTA,0.311
23,CTCGCGAG,0.16
24,CCGCTGCG,-0.148
25,ACTGGTTC,-0.0373

row,Sequence,PBM E-score
1,GGAGCCAC,0.00189
2,ACTATTAT,0.141
3,ATCGAGCA,-0.149
4,ATGGTCTC,-0.0418
5,CAAATGGG,-0.0333
6,ATACGTAA,0.0265
7,CCAACCAG,-0.113
8,CGCAGGCA,-0.126
9,CACGCCGA,0.045
10,CTCTCTAC,0.00472
11,ATGGGTGA,0.187
12,CCGACACG,0.00029
13,GTTCCACA,-0.0699
14,GGGCACCA,-0.333
15,CGGTCGCA,-0.248
16,AAAAAATA,-0.00362
17,CGGCGAAG,-0.184
18,GTATTGAA,0.115
19,TATACCAA,-0.0596
20,AGTTCTCA,0.179
21,TCTGGCAA,-0.0433
22,GCTATCAA,0.0782
23,AACAAATC,0.145
24,GTCTACCA,0.0416
25,TGTCTCAA,0.29

row,Sequence,PBM E-score
1,CGCGCGTA,-0.0265
2,AGGTTATG,-0.0963
3,GATCTGGA,-0.221
4,AGCTCGAT,0.014
5,GAAGCTAA,-0.0611
6,CTGTAAAA,0.106
7,GCTACTCC,-0.118
8,ACAGTATA,-0.0459
9,GGACGTCA,-0.0394
10,GGCATCTA,-0.0249
11,ACAAACTA,0.0163
12,ATTCTTAG,0.202
13,ACACCCTG,0.137
14,CCCCCGTC,-0.377
15,AATTCTCG,-0.0439
16,GGCATGAA,-0.0473
17,AGAACGCC,-0.178
18,AATGTAAT,0.0265
19,CCGCGTCC,-0.228
20,AATGCAAA,0.0614
21,GATTAACC,0.294
22,GATATAAA,0.00569
23,ACGGCAAC,-0.019
24,GATTATGC,0.112
25,CCCGAGCG,0.0533

row,Sequence,PBM E-score
1,AAGAACCT,-0.288
2,ACTATTGG,-0.0677
3,CTATGTCA,-0.0224
4,CCTAATGA,0.076
5,CGTTGAGA,0.159
6,AGGCTTTC,-0.0873
7,ACAACTTG,-0.127
8,ACACCACA,0.0441
9,ACCCTTGC,-0.0882
10,GGTATCTA,-0.163
11,CTAACGTA,0.197
12,GTAATTAA,0.148
13,AGAGTGAC,0.0971
14,TCATATGA,0.393
15,ACGCTCTC,-0.0508
16,GGAAACGA,0.176
17,AAGCAGCC,-0.198
18,AGAATTAA,-0.117
19,AACCGGTT,-0.0675
